In PubChem BioAssay (Tox21):
Several values for one entry are separate records, joined by “and”; a condition that tells them apart may be missing. Identical values can stand only once. This list was built around the results that the source calls inconclusive (neither active nor inactive); the mix of calls is not that of the screen. Potencies of inconclusive entries are doubtful fits and often do not repeat. Activity calls are given as the source filed them. The call rests on the fitted dose curve; in most records, active means well fitted cell-killing curve with a large enough effect in the repeat runs; inconclusive means weak or mixed curves, or effect the other way; inactive means flat fitted curve, though single readings scatter.

Assay: qHTS assay to identify small molecule antagonists of the androgen receptor (AR) signaling pathway using the MDA cell line - cell viability counter screen (AID 743041; further: nearly all actives have a fitted effect of over 45% in size)
Conditions: MDA-kb2 viability, CellTiter-Fluor, 16 h, cells co-treated with R1881 androgen agonist; viability change, negative = cytotoxic: at 70.3 µM (top of the series) unless noted
Text: National Center for Advancing Translational Sciences [NCATS]
NIH Chemical Genomics Center [NCGC]
U.S. Environmental Protection Agency [EPA]
National Institutes of Environmental Health Sciences [NIEHS]
National Toxicology Program [NTP]
U.S. Food and Drug Administration [FDA]
Androgen receptor (AR), a nuclear hormone receptor, plays a critical role in AR-dependent prostate cancer and other androgen related diseases. Endocrine disrupting chemicals (EDCs) and their interactions with steroid hormone receptors like AR may cause disruption of normal endocrine function as well as interfere with metabolic homeostasis, reproduction, developmental and behavioral functions. To identify the compounds that inhibit AR signaling, MDA-kb2 AR-luc cell line (from ATCC, deposited by Wilson et al.) was used to screen the Tox21 10K compound library. MDA-kb2 AR-luc cell line is human breast carcinoma cell line that was stably transfected with a luciferase reporter gene under control of the MMTV promoter containing response elements for both androgen receptor (AR) and glucocorticoid receptor (GR). The cytotoxicity of the Tox21 compound library against the MDA-kb2 AR-luc cell line was tested in parallel by measuring the cell viability using CellTiter-Fluor assay (Promega, Madison, WI) in the same wells.
Tox21 Assay Protocol Summary:
MDA-kb2 AR-luc cells were dispensed at 3,000 cells/4 uL/well of culture medium into white wall/solid-bottom 1536-well plates using a Multidrop Combi (ThermoFisher Scientific, Waltham, MA) dispenser. After the assay plates were incubated at a 37C and 0% CO2 for 5 hr, 23 nL of compounds dissolved in DMSO, positive controls or DMSO only was transferred to the assay plate by a Pintool station (Kalypsys, San Diego, CA), followed by addition of 1 uL of agonist (R1881) in culture medium using a Bioraptr Flying Reagent Dispenser (FRD) workstation (Beckman Coulter, Indianapolis, IN, USA). The plates were incubated at a 37C and 0% CO2 for 16 h. After 15.5 h incubation, 1uL of CellTiter-Fluor reagent (Promega) was added using a Bioraptr FRD to each plate for measuring cytotoxicity. The fluorescence intensity was quantified on a ViewLux plate reader (PerkinElmer, Shelton, CT) following 30 min incubation at 37C and 0% CO2.
On the % scale 0 is the no-effect control and ±100 the full control effect; potency means the concentration at half of the fitted maximal effect; tags describe the fitted curve by direction and shape.

Compound | viability change, negative = cytotoxic | Potency
CC1(C)O[C@@H]2C[C@H]3[C@@H]4CCC5=CC(=O)C=C[C@]5(C)[C@@]4(F)[C@@H](O)C[C@]3(C)[C@]2(C(=O)CO)O1 | inconclusive: 31.6% | 
CCCCCCCCCc1ccc(OCCOCCO)cc1 |  | active: 11.1 µM and active: 5.11 µM
O=C(Nc1ncc([N+](=O)[O-])s1)c1cccs1 |  | inconclusive: 23.7 µM [cytotoxic, partial curve, poor fit]
C[C@@H]1CN(CCCn2c3ccccc3c3ccccc32)C[C@H](C)N1 |  | inconclusive: 33.5 µM [cytotoxic, single point]
COc1ccc2sc(C(=O)Nc3nnn[nH]3)c(OC(C)C)c2c1 |  | inconclusive: 60.9 µM [cytotoxic, single point]
OCCOCCN1CCN(C(c2ccccc2)c2ccc(Cl)cc2)CC1 (stereo not given) |  | inconclusive: 0.335 µM [rising, full curve, poor fit]
CNc1ccc(O)cc1 |  | active: 61 µM
Nc1c2c(nc3ccccc13)CCCC2 |  | inconclusive: 68.6 µM [cytotoxic, single point]
CC#C[C@]1(O)CC[C@H]2[C@@H]3CCC4=CC(=O)CCC4=C3[C@@H](c3ccc(N(C)C)cc3)C[C@@]21C | inconclusive: -58.4% [cytotoxic] | inconclusive: 2.11 µM [rising, partial curve, poor fit]
CCN(CC)CCOc1ccc(C(O)(Cc2ccc(Cl)cc2)c2ccc(C)cc2)cc1 (stereo not given) |  | inconclusive: 33.5 µM [cytotoxic, single point]
Cc1cc(C2(c3cc(C)c(O)cc3C)OS(=O)(=O)c3ccccc32)c(C)cc1O |  | active: 30.6 µM
CCCCCCCC[N+](CCCCCCCC)(CCCCCCCC)CCCCCCCC |  | active: 4.32 µM
Nc1ccc(N)c(Cl)c1 |  | inconclusive: 68.5 µM [cytotoxic, single point] and inconclusive: 68.6 µM [cytotoxic, single point]
CCc1cc(Cl)c(OC)c(C(=O)NC[C@@H]2CCCN2CC)c1O |  | inconclusive: 33.5 µM [cytotoxic, single point]
CC(C)c1nc(CN(C)C(=O)N[C@H](C(=O)N[C@@H](Cc2ccccc2)C[C@H](O)[C@H](Cc2ccccc2)NC(=O)OCc2cncs2)C(C)C)cs1 |  | inconclusive: 33.5 µM [cytotoxic, partial curve, poor fit]
Cc1ccccc1S(N)(=O)=O |  | inactive
CCCOC(=O)c1ccc(O)cc1 |  | inconclusive: 27.3 µM [rising, single point]
CC[C@H](C)COC(=O)/C=C/c1ccc(N=Cc2ccc(OC)cc2)cc1 |  | inactive
Cc1[nH]nc2c1N=C(c1ccccc1Cl)c1cc([N+](=O)[O-])ccc1N2 |  | inconclusive: 68.6 µM [cytotoxic, single point]
O=C(Cn1ccnc1[N+](=O)[O-])NCCO |  | inactive

Compound | viability change, negative = cytotoxic | Potency
O=[N+]([O-])c1cc(C2CCCCC2)c(O)c([N+](=O)[O-])c1 |  | active: 30.5 µM
Nc1ccc(Oc2ccc(N)c(N)c2)cc1 |  | inconclusive: 54.5 µM [cytotoxic, partial curve, poor fit]
CN1CCN(c2cc3c(cc2F)c(=O)c(C(=O)O)cn3-c2ccc(F)cc2)CC1 |  | inconclusive: 0.0049 µM [cytotoxic, partial curve, poor fit]
CC(O)c1ccccc1 (stereo not given) |  | inconclusive: 6.98 µM [rising, single point]
CCCCCCCCC=O |  | inconclusive: 24.3 µM [rising, partial curve, poor fit]
C[C@@]12C(=O)OC(=O)[C@]1(C)C1CCC2O1 |  | active: 3.35 µM
CCCCCCCCCCCCCC[n+]1ccccc1 |  | active: 4.33 µM
Nc1ccc(O)cc1 |  | active: 29.8 µM and active: 48.6 µM and active: 56.6 µM
CCCCCCCC[P+](CCCCCCCC)(CCCCCCCC)CCCCCCCC |  | active: 6.08 µM
C=CC(=O)OCC1CC2CC1C1CCC(COC(=O)C=C)C21 (stereo not given) |  | inconclusive: 68.6 µM [cytotoxic, partial curve, poor fit]
COc1cc(C=C2CCC/C(=C\c3ccc(O)c(OC)c3)C2=O)ccc1O |  | inconclusive: 29.8 µM [cytotoxic]
CCCCC1C(=O)N(c2ccccc2)N(c2ccc(O)cc2)C1=O (stereo not given) |  | inconclusive: 11.9 µM [cytotoxic, partial curve, poor fit]
CC(C)CCCCCCCOC(=O)CCCCC(=O)OCCCCCCCC(C)C |  | inactive
CC(=O)O[C@]1(C(C)=O)CC[C@H]2[C@@H]3C=C(Cl)C4=CC(=O)CC[C@]4(C)[C@H]3CC[C@@]21C |  | inconclusive: 33.5 µM [cytotoxic, single point]
CC(O)CN(CCN(CC(C)O)CC(C)O)CC(C)O (stereo not given) |  | inactive
O=C(O)Cc1ccccc1Nc1c(Cl)cccc1Cl |  | inactive
Cc1c(O)cccc1C(=O)N[C@@H](CSc1ccccc1)[C@H](O)CN1C[C@H]2CCCC[C@H]2C[C@H]1C(=O)NC(C)(C)C |  | active: 27.8 µM and active: 59.5 µM
O=C1OC2(c3cc(Br)c(O)c(Br)c3Oc3c2cc(Br)c(O)c3Br)c2c(Cl)c(Cl)c(Cl)c(Cl)c21 |  | active: 4.33 µM and active: 37.1 µM
Cc1ccc(C(=O)c2cc(O)c(O)c([N+](=O)[O-])c2)cc1 |  | inconclusive: 68.6 µM [cytotoxic, single point]
